Assay results published in the supplement of paper PMC4604168 (melanoma cell lines).
The other results are listed elsewhere or left out. Repeats are few or missing, and single values can be far off.

How the values were obtained:
Test in all cases: cell count relative to DMSO control; melanoma cells; higher = more viable cells
Conditions in all cases: library dose: standard library concentration; 72 h
SkMel28 = tested on: SkMel28
SkMel2 = tested on: SkMel2
SkMel30 = tested on: SkMel30
SkMel5 = tested on: SkMel5
UACC257 = tested on: UACC257
UACC62 = tested on: UACC62
WM115 = tested on: WM115
WM1716 = tested on: WM1716
WM3526 = tested on: WM3526
WM1745 = tested on: WM1745
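Further: cells treated in 1,536-well plates, then fixed and DAPI-stained, with nuclei counted from automated high-throughput microscope images.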

SMILES	cell count (SkMel28)	cell count (SkMel2)	cell count (SkMel30)	cell count (SkMel5)	cell count (UACC257)	cell count (UACC62)	cell count (WM115)	cell count (WM1716)	cell count (WM3526)	cell count (WM1745)
COc1ccc(C2=N[C@@H](c3ccc(Cl)cc3)[C@@H](c3ccc(Cl)cc3)N2C(=O)N2CCNC(=O)C2)c(OC(C)C)c1 [Nutlin-3] + O=C(Nc1ccccc1)c1cc([N+](=O)[O-])ccc1Cl [GW9662] (first compound 0.5 µM, partner dose 10 µM)	51.7%	86.5%	94.9%	67.8%	71.6%	65%	66.6%	66.8%	85.2%	
Cc1cn(-c2cc(NC(=O)c3ccc(C)c(Nc4nccc(-c5cccnc5)n4)c3)cc(C(F)(F)F)c2)cn1 [nilotinib] + COc1cc(N2CCC(N3CCN(C)CC3)CC2)ccc1Nc1ncc(Cl)c(Nc2ccccc2S(=O)(=O)C(C)C)n1 [NVP-TAE684] (first compound 1 µM, partner dose 0.4 µM)	78.6%	76%	90.2%	62%	92.1%	90.8%	93.6%	84.7%	66%	
Cc1cn(-c2cc(NC(=O)c3ccc(C)c(Nc4nccc(-c5cccnc5)n4)c3)cc(C(F)(F)F)c2)cn1 [nilotinib] + O=C(Nc1ccccc1)c1cc([N+](=O)[O-])ccc1Cl [GW9662] (first compound 1 µM, partner dose 10 µM)	77.1%	97.7%	88.4%	64.7%	77.4%	59.7%	88.1%	93.1%	88.4%	
Cc1cn(-c2cc(NC(=O)c3ccc(C)c(Nc4nccc(-c5cccnc5)n4)c3)cc(C(F)(F)F)c2)cn1 [nilotinib] + c1cc(-c2cnn3cc(-c4ccc(OCCN5CCCCC5)cc4)cnc23)ccn1 [Dorsomorphin] (first compound 1 µM, partner dose 2 µM)	76.6%	74%	84.5%	57.5%	107%	57.5%	76.3%	89.1%	83.1%	
CC(C)C[C@H](NC(=O)[C@H](Cc1ccccc1)NC(=O)c1cnccn1)B(O)O [Bortezomib] + COc1ccc2c(c1)CCC1C2CCC2(C)C(NCCCCCCN3C(=O)C=CC3=O)CCC12 [U73122] (first compound 0.005 µM, partner dose 2 µM)	71.2%	82.5%	32.7%	32.3%	68.4%	68.7%	37%	13.7%	28.8%	
Cc1cn(-c2cc(NC(=O)c3ccc(C)c(Nc4nccc(-c5cccnc5)n4)c3)cc(C(F)(F)F)c2)cn1 [nilotinib] + CCCCCCCCCCCC1=C(O)C(=O)C=C(O)C1=O [Embelin] (first compound 1 µM, partner dose 6 µM)	96.3%	70.9%	103%	84.9%	95.2%	82%	92.6%	70%	84.7%	
Cc1cc(Nc2cc(N3CCN(C)CC3)nc(/C=C/c3ccccc3)n2)n[nH]1 + O=C(Nc1ccccc1)c1cc([N+](=O)[O-])ccc1Cl [GW9662] (first compound 0.2 µM, partner dose 10 µM)	43.1%	109%	88.6%	76.4%	75.4%	90.9%	43.1%	79.3%	69.1%	
Cc1cn(-c2cc(NC(=O)c3ccc(C)c(Nc4nccc(-c5cccnc5)n4)c3)cc(C(F)(F)F)c2)cn1 [nilotinib] + O=C(O)C(=O)Nc1sc2c(c1C(=O)O)CCNC2 [TCS401] (first compound 1 µM, partner dose 8.33333 µM)	122%	121%	106%	52.8%	93.4%	77.5%	108%	90.1%	85%	
COc1ccc(C2=N[C@@H](c3ccc(Cl)cc3)[C@@H](c3ccc(Cl)cc3)N2C(=O)N2CCNC(=O)C2)c(OC(C)C)c1 [Nutlin-3] + O=c1cc(-c2cccc3c2Sc2ccccc2S3)oc(N2CCOCC2)c1 [KU55933] (first compound 0.5 µM, partner dose 5 µM)	44.2%	65.6%	73.2%	61.5%	71.6%	57.8%	59.9%	59%	62.5%	
Cc1cc(Nc2cc(N3CCN(C)CC3)nc(/C=C/c3ccccc3)n2)n[nH]1 + CCN(CC)CCCCNc1ncc2cc(-c3cc(OC)cc(OC)c3)c(NC(=O)NC(C)(C)C)nc2n1 [PD173074] (first compound 0.2 µM, partner dose 0.5 µM)	63.4%	114%	112%	79.6%	102%	67.6%	80.2%	99%	104%	
Cn1c(=O)n(-c2ccc(C(C)(C)C#N)cc2)c2c3cc(-c4cnc5ccccc5c4)ccc3ncc21 + COc1ccc2c(c1)CCC1C2CCC2(C)C(NCCCCCCN3C(=O)C=CC3=O)CCC12 [U73122] (first compound 0.02 µM, partner dose 2 µM)	61.1%	76.6%	88.8%	64.4%	93.2%	77.3%	100%	72.9%	81.2%	
COc1ccc(C2=N[C@@H](c3ccc(Cl)cc3)[C@@H](c3ccc(Cl)cc3)N2C(=O)N2CCNC(=O)C2)c(OC(C)C)c1 [Nutlin-3] + COc1cc(N2CCC(N3CCN(C)CC3)CC2)ccc1Nc1ncc(Cl)c(Nc2ccccc2S(=O)(=O)C(C)C)n1 [NVP-TAE684] (first compound 0.5 µM, partner dose 0.4 µM)	62%	61.4%	119%	57.2%	64.4%	51%	61.5%	70.3%	76.5%	
CC(C)C[C@H](NC(=O)[C@H](Cc1ccccc1)NC(=O)c1cnccn1)B(O)O [Bortezomib] + O=C(O)C(=O)Nc1sc2c(c1C(=O)O)CCNC2 [TCS401] (first compound 0.005 µM, partner dose 8.33333 µM)	58.2%	79.2%	48.9%	31.2%	74.9%	66.6%	29.5%	17.1%	33.1%	
CC(C)C[C@H](NC(=O)[C@H](Cc1ccccc1)NC(=O)c1cnccn1)B(O)O [Bortezomib] + O=c1cc(-c2cccc3c2Sc2ccccc2S3)oc(N2CCOCC2)c1 [KU55933] (first compound 0.005 µM, partner dose 5 µM)	23.4%	23.4%	30.7%	24.9%	85.2%	48.9%	13.5%	13.1%	17%	
CC(C)C[C@H](NC(=O)[C@H](Cc1ccccc1)NC(=O)c1cnccn1)B(O)O [Bortezomib] + N#Cc1c(O)c2c(-c3ccc(-c4ccccc4O)cc3)csc2[nH]c1=O [A769662] (first compound 0.005 µM, partner dose 10 µM)	27.7%	38.5%	31.7%	26.5%	83.1%	61.5%	15.5%	17.9%	24.2%	
CC(C)C[C@H](NC(=O)[C@H](Cc1ccccc1)NC(=O)c1cnccn1)B(O)O [Bortezomib] + O=C1NC(=O)/C(=C/c2ccc(-c3ccc(F)cc3O)o2)S1 [AS252424] (first compound 0.005 µM, partner dose 5 µM)	31.3%	49.4%	38%	27.4%	74.9%	79.8%	27.3%	17.4%	28.7%	
COc1ccc(C2=N[C@@H](c3ccc(Cl)cc3)[C@@H](c3ccc(Cl)cc3)N2C(=O)N2CCNC(=O)C2)c(OC(C)C)c1 [Nutlin-3] + CCCCCCCCCCCC1=C(O)C(=O)C=C(O)C1=O [Embelin] (first compound 0.5 µM, partner dose 6 µM)	60.2%	102%	106%	85.8%	86.1%	61.8%	62.7%	75.5%	119%	
CC(C)C[C@H](NC(=O)[C@H](Cc1ccccc1)NC(=O)c1cnccn1)B(O)O [Bortezomib] + O=C(Nc1ccccc1)c1cc([N+](=O)[O-])ccc1Cl [GW9662] (first compound 0.005 µM, partner dose 10 µM)	18.4%	28.7%	30.5%	29.4%	68%	52.2%	19.3%	24.7%	33.4%	
Cc1cn(-c2cc(NC(=O)c3ccc(C)c(Nc4nccc(-c5cccnc5)n4)c3)cc(C(F)(F)F)c2)cn1 [nilotinib] + COc1ccc2c(c1)CCC1C2CCC2(C)C(NCCCCCCN3C(=O)C=CC3=O)CCC12 [U73122] (first compound 1 µM, partner dose 2 µM)	96.2%	98.7%	93.9%	61%	110%	60.1%	74.1%	69.6%	76.9%	
Cn1c(=O)n(-c2ccc(C(C)(C)C#N)cc2)c2c3cc(-c4cnc5ccccc5c4)ccc3ncc21 + CCCCCCCCCCCC1=C(O)C(=O)C=C(O)C1=O [Embelin] (first compound 0.02 µM, partner dose 6 µM)	64.1%	51%	71.2%	79.7%	89.3%	81%	53.2%	77.3%	83.9%	
CC(C)C[C@H](NC(=O)[C@H](Cc1ccccc1)NC(=O)c1cnccn1)B(O)O [Bortezomib] + Cc1cc([N+](=O)[O-])ccc1NS(=O)(=O)c1cc(Cl)ccc1Cl [FH535] (first compound 0.005 µM, partner dose 5 µM)	27.2%	43.1%	38.1%	26.1%	68.2%	59.6%	33.8%	17.5%	28.6%	
CC(C)C[C@H](NC(=O)[C@H](Cc1ccccc1)NC(=O)c1cnccn1)B(O)O [Bortezomib] + Cn1cncc1[C@@](N)(c1ccc(Cl)cc1)c1ccc2c(c1)c(-c1cccc(Cl)c1)cc(=O)n2C [tipifarnib] (first compound 0.005 µM, partner dose 0.05 µM)	27.5%		39.2%	28.5%	73.9%	60.9%	18.9%	11.6%	28.4%	13%
